Measured values: the RNAGym collection of RNA variant scans (doi:10.1093/nar/gkz1192)
Read counts are not given, so values of variants with three or more changes are uncertain.

B1: CPEB3 Ribozyme (parent)
chain: UAACAGGGGGCCACAGCAGAAGCGUUCACGUCGCAGCCCCUGUCAGAUUCUGGUGAAUCUGCGAAUUCUGCUGUAUAUCUC

Variants of: B1
Assay: self-cleavage, relative activity (ratio to wild type); higher = more cleavage; in vitro, sequencing
Method in brief: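 Relative activity was defined as the cleaved/total read fraction for a variant divided by the same fraction for the unmutated ribozyme. CPEB3 self-cleaving ribozyme libraries were made by rounds of error-prone PCR, barcoded, and transcribed in vitro with T7 RNA polymerase for 5 hours at 37°C, and cleavage ran through transcription plus a 15 min DNase I step before EDTA. Illumina sequencing of template-switched reverse transcripts gave the reads, and DNA sequencing mapped the barcodes. Averages come from three batches, using variants with at least 5 reads.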
UAACAGUGGGCCACAGUAGAAGCGUUCACGUCGCAGCCCCUGUCAGUUUCUGGCGAAUCUGCGGAUUCUGCUGUAUAUCUC showed a self-cleavage of 0.08. For UAACAGUGGGCCACAGCAGAAGCGUUCACGUCGCCGCCCCUGUCAGAUUCUGGUGAACCUGCGAAUUCUGCUGUAUAUCUC, the self-cleavage was 0.17. In the case of UAACAGGAGGCCGCAGCAGAAGCGUUCACGCCGCAGCCCCUGUCAGAUUCUGGUGAAUCUGCGAAUGCUGCUGUAUAUCUC, the self-cleavage is reported as 0.09. UAACAGGAGGCCUCAGCAGAAGCGUCCACGUCGCAGCCCCUGUCAGAUUCUGGUGAAUCAGCGAGUUCUGCUGUAUAUCUC showed a self-cleavage of 0.07. With UAACAGUGGGGCACAGCAGAAGCGUUCACGUCACAGCCCCUGUCAGAAUCUGGUGAAUCUGCGAAUUCUGCUGUAUACCUC the self-cleavage was 0.06. With UAACAGUGGGCCACAGCAGAAGCGCUCACGUCGCAGCCCCUGUCUGAUUCUGGUGAGUCUGCGGAUUCUGCUGUAUAUCUC the self-cleavage was 0.05. Variant UAACAGUGGGCCACAACAGAAGCGUUCACGUCGCAGCCCCAGUCAGAUUCUGGUGAACCUGCGAAUUCCGCUGUAUAUCUC has a self-cleavage of 0.05. UAACAGGAGGCCACUGCAGAAGCGUCCACGUCGCAGCCCCUGCCAGAUUCUGGUGAAUCUGCGAACUCUGCUGUAUAUCUC gave a self-cleavage of 0.04. UAACAGUGGGUCCCAGCAGAACCGUUCACGUCGCAGCCCCAGUCAGAUUCUGGUGAAUCUGCGAAUUCUGCUUUAUAUCUC showed a self-cleavage of 0.21. Work on UAACAGUGGGCCACAGCAGAAGCGUUCACGUCGCAGCCCCUGACUGAUUCUGGUGAAUCUGCGAAUUCCGCUGUAUAUCUC yielded a self-cleavage of 0.05. With UAACAGGAGGCCGCUGCAGAAGCGUUCACGUCGCAGCCCCAGUCAGAUUCUGGUGAAUCUGCGAAUUCUGCUGUAUAUCUC the self-cleavage was 0.33. In the case of UAACAGUGGGCCACAGCAGAAGCGUUCAUAUCGCAGCCCAUGUCAGAUUCUGGUGAAUCUGCGAAUUCUGCUGUAUAUCUC, the self-cleavage is reported as 0.06. Variant UAACAGUGGGCCACAGCAGUAGCGUUCACGUCGCAGCCCCUGUCAGAUUCUGGUGAAUCUGCGAAUUCUGCAGUCUAUCUC has a self-cleavage of 0.08. For UAACAGUGGGCCACAGCAGAGGCGUUCACGUCGCAGCCCCUGUCAGAUCCUGGUGAAUCUGCGAGUUCUGCUGUAAAUCUC, the self-cleavage was 0.11. Work on UAACAGUGGGCCACAGCAGAGGCGUUCACGCCGCAGCCCCUGUCCGAUACUGGUGAAUCUGCGAAUUCAGCUGUAUAUCUC yielded a self-cleavage of 0.05. Work on UAACAGUGGGCCACAGCAUAAGAGUUCACAUCGCUACACCUGUCAGAUUCUGGUGAAUCUGCGAAUUCUGCUGUAUAUCUC yielded a self-cleavage of 0.06. With UAACAGGAGGCCACUGCAGAAGCGUUCACGUCGCAGCCCCCGUCAGAUUCUGGUGAAUCUGCGAAUUCUGCUGUAUAUCUC the self-cleavage was 0.37. For UAACAGGAGGCCACAGCGGGAGCGUACACGUCGCAGCCCCUGCCAGAUUCUGGUGAAUCUGCGAAUACGGCUGUAUAUCUC, the self-cleavage was 0.03. UAACAGGAGGCCACUGCAGAAGCGGCCACGUCGCAGCCCCUGUCAGAUACUGGUGAAUCUGCGAAUUCUGCUGUUUAUCUC gave a self-cleavage of 0.04. With UAACAGUGGGCCACAGCAGGAGCGUUCACGUCGCAGCCCCUGUCAGAUUCAGGUGAAUCUGCGAAUUCUGCUGUAUAUCUC the self-cleavage was 0.28. Variant UAACAGGAGGCCUCAGCAGAAGCGUUCACGUCGCAGCCCCUGUCAGAUUCUGGUGAAUCCGCGAAUUCUGCUGUAUACCUC has a self-cleavage of 0.16. Work on UAACAGUGGGCCACAGCAGAAGCGUCUACGUCGCAGCCCCUGUCAGAUUCUGGUGAAUCUGCGAAUUCUGCUGUAUAUCUC yielded a self-cleavage of 0.05. Work on UAACAGUGGGCCACAGCAGAAGCGUUCACGUCGCAGCCCCUGUCGGAUUCCGGUGAAUCUGCGAAUUCUGCUGUAUAUCUC yielded a self-cleavage of 0.1. In the case of UAACAGUGGGCCACAGCAGAAGCGUUCACGUCGCAGCCCCUUUCAGAUUCUGGUGAAUCUGCGCAUUCUGCUGUAUAUCUC, the self-cleavage is reported as 0.1. UAACAGGAGGCCUCAGCUGAAGCGUACACGUCGCAGCCCCUGUCAGAUUCUGGUGAAUCUGCGAGUUCUGCUGAAUAUCUC gave a self-cleavage of 0.04. Variant UAACAGGAGGCCUAAGCAGAAGCGUUCACGUCGCAGCCCCUGUCUGAUUCCGGUGAAUCUGCGAAUUCUGCUGUAUAUCUC has a self-cleavage of 0.06. Variant UAACAGUGGGCCACAGCAGAAGCGUUCACGUCGCAGCCCCUGUCAGAUUCCGGUGGAUCUGCGAAUUCUGCUGUAUAUCUC has a self-cleavage of 0.06. UAACAGUGGGCCACAGCAGAAGCGUUCACGUCGCAGCCCCCGUCAGAUCCUGGUGAAUCUGCGAAUUCUGCUGUAUAUCUC gave a self-cleavage of 0.07. UAACAGUGGACCACUGCAGAAGCGUUCACGCCGCAGCCCCUGUCAGAUUCUCGUGAAUCUGCGAAUUCUGCUGUAUAUCUC gave a self-cleavage of 0.34. UAACAGGAGGCCUCAGCAGAAGCGUUCGCGUCGCAGCCCCUGUCAGAUCCUGGUGAAUCUGCGAAUUCUGCUGUAUAUCUC gave a self-cleavage of 0.11. UAACAGUGGGCCACAGCAGAAGCGUUCUCGUCGCAGCCCCUGUCAGACUCUGGUGAAUCUGCGAAUUCUGCUGUAUAUCUC showed a self-cleavage of 0.07. For UAACAGGAGGCCACUGCAGAAGCGCUCACGUCGCUGCCCCUGUCAGAUUCUGGUGAAUCUGCGAAUUCUGCUGUAUAUCUC, the self-cleavage was 0.05. For UAACAGUGGGCCACAGCGGAAGCGUUCACGUCGCAGCCCCUGUCAGAUUCUGGUGAAUCUGCGAAUUCUGCUGUAUACCUC, the self-cleavage was 0.2. Work on UAACAGUGGGCCACAGCAGAAGUGUUCACCUCGCAGCCCCUGUCAGUUUCUGGUGAAUCUGCGAAUUCUGCUGUAUAUCUC yielded a self-cleavage of 0.05.
